In the supplement of paper PMC7125110:
± gives the standard error. Variants at the floor of the assay are shown more often than the library holds them.

B1: glmS ribozyme (parent)
chain: AUAAAAGCGCCAGAACUACAGAAAUGUAGUUGACGAGGAGGAGGUUUAUCGAAUUUUCGGCGGAUGCCUCCAAA

Legend:
Conditions in all cases: with glucosamine-6-phosphate
[1] = variants of: B1; assay: self-cleavage kobs at 640 uM GlcN6P; higher = faster cleavage; RNA array
Procedure, shortened: (§1)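 In situ transcription by E. coli RNA polymerase produced barcoded ribozyme variants on sequenced MiSeq chips, and a hybridised Cy3 probe tracked them at 37 °C. Glucosamine-6-phosphate was flowed in at 40 μM to 10 mM in HEPES/KCl/Mg(OAc)2 buffer. kcat and KM were taken from weighted Michaelis–Menten fits of kobs values from exponential decay fits.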

[2] = variants of: B1; assay: self-cleavage kobs at 2500 uM GlcN6P; higher = faster cleavage; RNA array
Procedure, shortened: as §1

[3] = variants of: B1; assay: self-cleavage kobs at 160 uM GlcN6P; higher = faster cleavage; RNA array
Procedure, shortened: as §1

[4] = variants of: B1; assay: self-cleavage kobs at 10000 uM GlcN6P; higher = faster cleavage; RNA array
Procedure, shortened: as §1

Q: What does the source list for G13U A33G A64U?
A: self-cleavage kobs at 640 uM GlcN6P [1]: < 1e-05 s⁻¹; self-cleavage kobs at 2500 uM GlcN6P [2]: < 1e-05 s⁻¹

Q: How did the “self-cleavage kobs at 640 uM GlcN6P” value [1] turn out when G13U G60U G62A was run?
A: Its value is < 1e-05 s⁻¹.

Q: With A15G G44C U49G as the variant, how does the “self-cleavage kobs at 640 uM GlcN6P” value [1] read?
A: The value was < 1e-05 s⁻¹.

Q: What does the source list for A14C A33G A42U C67G?
A: self-cleavage kobs at 640 uM GlcN6P [1]: < 1e-05 s⁻¹; self-cleavage kobs at 2500 uM GlcN6P [2]: < 1e-05 s⁻¹

Q: For A14C G43C U46A, which “self-cleavage kobs at 640 uM GlcN6P” value [1] is on record?
A: The value was < 1e-05 s⁻¹.

Q: What about the “self-cleavage kobs at 160 uM GlcN6P” value [3] of the same variant?
A: The value was < 1e-05 s⁻¹.

Q: And the “self-cleavage kobs at 2500 uM GlcN6P” value [2]?
A: Its value is < 1e-05 s⁻¹.

Q: Which results are given for A15U G40A A42G A64C C70G?
A: self-cleavage kobs at 640 uM GlcN6P [1]: < 1e-05 s⁻¹; self-cleavage kobs at 2500 uM GlcN6P [2]: < 1e-05 s⁻¹

Q: How did the “self-cleavage kobs at 640 uM GlcN6P” value [1] turn out when A15C C34A G63C C71U was run?
A: The value was < 1e-05 s⁻¹.

Q: Which “self-cleavage kobs at 640 uM GlcN6P” value [1] does the source give for A14G U47A G66C here?
A: The value was 0.000364 ± 0.00011 s⁻¹.

Q: And the “self-cleavage kobs at 2500 uM GlcN6P” value [2]?
A: The value was 0.00101 ± 0.00023 s⁻¹.

Q: What about the “self-cleavage kobs at 10000 uM GlcN6P” value [4] of the same variant?
A: Its value is 0.00125 ± 0.00022 s⁻¹.

Q: For A15C G60U, which “self-cleavage kobs at 640 uM GlcN6P” value [1] is on record?
A: The value was < 1e-05 s⁻¹.

Q: And the “self-cleavage kobs at 160 uM GlcN6P” value [3]?
A: The value was < 1e-05 s⁻¹.

Q: And the “self-cleavage kobs at 2500 uM GlcN6P” value [2]?
A: Its value is < 1e-05 s⁻¹.

Q: What about the “self-cleavage kobs at 10000 uM GlcN6P” value [4] of the same variant?
A: Its value is < 1e-05 s⁻¹.

Q: How did the “self-cleavage kobs at 640 uM GlcN6P” value [1] turn out when C19A G35A was run?
A: The value was < 1e-05 s⁻¹.

Q: And the “self-cleavage kobs at 2500 uM GlcN6P” value [2]?
A: Its value is < 1e-05 s⁻¹.

Q: What does the source list for A15C U31G A39U G44C G60A?
A: self-cleavage kobs at 640 uM GlcN6P [1]: < 1e-05 s⁻¹; self-cleavage kobs at 10000 uM GlcN6P [4]: < 1e-05 s⁻¹

Q: For A15C U46A, which “self-cleavage kobs at 640 uM GlcN6P” value [1] is on record?
A: The value was 0.000102 ± 2.1e-05 s⁻¹.

Q: And the “self-cleavage kobs at 2500 uM GlcN6P” value [2]?
A: The value was 0.000152 ± 3.8e-05 s⁻¹.

Q: And the “self-cleavage kobs at 10000 uM GlcN6P” value [4]?
A: The value was 0.000416 ± 9.4e-05 s⁻¹.

Q: C16A G37C G59C was tested. Which “self-cleavage kobs at 640 uM GlcN6P” value [1] did it give?
A: The value was < 1e-05 s⁻¹.

Q: What about the “self-cleavage kobs at 160 uM GlcN6P” value [3] of the same variant?
A: The value was < 1e-05 s⁻¹.

Q: What does the source list for C16U U46C A53U?
A: self-cleavage kobs at 640 uM GlcN6P [1]: 0.000328 ± 7.3e-05 s⁻¹; self-cleavage kobs at 2500 uM GlcN6P [2]: 0.00078 ± 0.00025 s⁻¹

Q: A15G C34A G60C was tested. Which “self-cleavage kobs at 640 uM GlcN6P” value [1] did it give?
A: Its value is < 1e-05 s⁻¹.

Q: Which “self-cleavage kobs at 640 uM GlcN6P” value [1] does the source give for A14C A42G G66A here?
A: The value was 0.000473 ± 0.00012 s⁻¹.

Q: For A15U G40A U49C, which “self-cleavage kobs at 640 uM GlcN6P” value [1] is on record?
A: Its value is < 1e-05 s⁻¹.

Q: And the “self-cleavage kobs at 2500 uM GlcN6P” value [2]?
A: Its value is < 1e-05 s⁻¹.

Q: What does the source list for G13U A15G G32A C70G?
A: self-cleavage kobs at 640 uM GlcN6P [1]: 5.48e-05 ± 1.7e-05 s⁻¹; self-cleavage kobs at 2500 uM GlcN6P [2]: 8.14e-05 ± 1.6e-05 s⁻¹; self-cleavage kobs at 10000 uM GlcN6P [4]: 8.98e-05 ± 1.9e-05 s⁻¹

Q: How did the “self-cleavage kobs at 640 uM GlcN6P” value [1] turn out when G13C G35U C61U was run?
A: The value was < 1e-05 s⁻¹.

Q: What does the source list for A15G G41U G62U?
A: self-cleavage kobs at 640 uM GlcN6P [1]: < 1e-05 s⁻¹; self-cleavage kobs at 160 uM GlcN6P [3]: < 1e-05 s⁻¹; self-cleavage kobs at 2500 uM GlcN6P [2]: < 1e-05 s⁻¹

Q: How did the “self-cleavage kobs at 640 uM GlcN6P” value [1] turn out when A15C U31G G35U U47A C58U C68U was run?
A: Its value is < 1e-05 s⁻¹.

Q: With A15C A39U A42C C67G as the variant, how does the “self-cleavage kobs at 640 uM GlcN6P” value [1] read?
A: Its value is < 1e-05 s⁻¹.

Q: What about the “self-cleavage kobs at 160 uM GlcN6P” value [3] of the same variant?
A: The value was < 1e-05 s⁻¹.

Q: And the “self-cleavage kobs at 2500 uM GlcN6P” value [2]?
A: Its value is < 1e-05 s⁻¹.

Q: A14C G37C U57G G60A was tested. Which “self-cleavage kobs at 640 uM GlcN6P” value [1] did it give?
A: The value was < 1e-05 s⁻¹.

Q: What does the source list for A15U A33G C61G?
A: self-cleavage kobs at 640 uM GlcN6P [1]: < 1e-05 s⁻¹; self-cleavage kobs at 2500 uM GlcN6P [2]: < 1e-05 s⁻¹; self-cleavage kobs at 10000 uM GlcN6P [4]: < 1e-05 s⁻¹

Q: How did the “self-cleavage kobs at 640 uM GlcN6P” value [1] turn out when A14U A64U was run?
A: Its value is < 1e-05 s⁻¹.

Q: And the “self-cleavage kobs at 160 uM GlcN6P” value [3]?
A: The value was < 1e-05 s⁻¹.

Q: For A14U G35U A39U C50U C70G, which “self-cleavage kobs at 640 uM GlcN6P” value [1] is on record?
A: Its value is < 1e-05 s⁻¹.

Q: What about the “self-cleavage kobs at 160 uM GlcN6P” value [3] of the same variant?
A: The value was < 1e-05 s⁻¹.

Q: How did the “self-cleavage kobs at 640 uM GlcN6P” value [1] turn out when C16G A39G A64C was run?
A: Its value is < 1e-05 s⁻¹.

Q: What does the source list for C16A U31G A52C?
A: self-cleavage kobs at 640 uM GlcN6P [1]: < 1e-05 s⁻¹; self-cleavage kobs at 2500 uM GlcN6P [2]: < 1e-05 s⁻¹

Q: With A15G A48G as the variant, how does the “self-cleavage kobs at 640 uM GlcN6P” value [1] read?
A: Its value is 4.16e-05 ± 1.4e-05 s⁻¹.
